# Measured values from PubChem BioAssay AID1476 (National Center for Advancing Translational Sciences (NCATS), 2009).
# About 4,500 (2.2%) of roughly 200,000 compounds were called active. The inconclusive results got no clear call from the source; some entries with a clear call stand among them for comparison. Calls follow the shape of the dose curve; as a rule, active = well fitted inhibition curve with a large enough effect; inconclusive = small, poorly fitted or top-dose-only effect, or effect the other way; inactive = flat fitted curve, though single readings scatter. Potencies beside an inconclusive call are fits to weak or partial responses and may not hold up.
# Target: Cruzipain (Trypanosoma cruzi) (UniProt P25779)
# Chain of UniProt P25779 (P25779 whole entry, looked up): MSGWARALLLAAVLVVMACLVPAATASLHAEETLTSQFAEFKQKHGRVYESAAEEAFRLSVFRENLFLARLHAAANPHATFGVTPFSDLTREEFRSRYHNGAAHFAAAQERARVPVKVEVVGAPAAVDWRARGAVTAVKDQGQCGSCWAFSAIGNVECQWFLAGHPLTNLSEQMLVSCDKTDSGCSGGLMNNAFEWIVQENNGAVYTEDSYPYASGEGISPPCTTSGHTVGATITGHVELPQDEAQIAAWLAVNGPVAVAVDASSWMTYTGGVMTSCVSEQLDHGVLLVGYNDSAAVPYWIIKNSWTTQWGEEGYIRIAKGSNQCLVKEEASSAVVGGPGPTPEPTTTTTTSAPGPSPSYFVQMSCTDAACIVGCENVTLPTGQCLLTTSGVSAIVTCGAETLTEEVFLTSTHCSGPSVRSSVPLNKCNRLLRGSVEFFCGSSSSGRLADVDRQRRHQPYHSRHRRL
# Assay: qHTS Assay for Promiscuous and Specific Inhibitors of Cruzain (without detergent); also: nearly all actives have a fitted effect of over 40% in size;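 as to max response, negative = inhibition: plate controls were enzyme without inhibitor for no effect and buffer without enzyme for full effect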
# Details: purified cruzain, Z-FR-AMC fluorescence, no detergent
# Procedure, shortened: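 Detergent-free condition (0.00005% Triton X-100) in acetate buffer pH 5.5 with DTT. 1.5 nM enzyme and compound were pre-mixed 15 min, then 2 uM Z-FR-AMC substrate added; reaction progress from fluorescence change between first and third reads (60 s).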
# Potency is read from the fitted curve at half-maximal effect; tags tell the direction and shape of the fitted curve.
Structure (SMILES),Potency,"max response, negative = inhibition"
CCOc1cccc2sc(NC(=O)c3ccc(Br)s3)nc12,"inconclusive: 31.6 µM [inhibitor, single point]",–
NCCC[C@@H](CC(=O)N[C@@H]1CCNC[C@H]1C(=O)N[C@H](CC(=O)N[C@@H](CCC(=O)O)CC(=O)O)Cc1c[nH]c2ccccc12)NC(=O)C[C@H](CO)NC(=O)[C@@H]1CNCC[C@H]1N,–,inactive: -6.51%
O=C(COc1ccccc1)NC1CCCCC1,–,inactive: 1.81%
O=C(NCc1ccco1)c1ccc(Cn2c(=O)c3sccc3n(Cc3ccc(F)cc3)c2=O)cc1,"inconclusive: 25.1 µM [inhibitor, single point]",–
COc1cc(NC(=O)COC(=O)c2cc(S(=O)(=O)N3CCCCC3)ccc2Cl)c(C)cc1[N+](=O)[O-],"inconclusive: 31.6 µM [inhibitor, single point]",–
O=C(Nc1cnn(C23CC4CC(CC(C4)C2)C3)c1)c1cnn2cccnc12,"inconclusive: 39.8 µM [activator, single point]",–
COc1ccc(N2CCN(C(=O)c3ccc4c(c3)N(Cc3ccc(F)cc3)C(=O)c3ccccc3S4=O)CC2)cc1 (stereo not given),–,inactive: 11.8%
O=c1c2ccccc2nc2n1CCC2,active: 12.6 µM,–
O=C(N/N=C/c1cccc(OC(=O)c2ccc3c(c2)OCO3)c1)c1cncc(Br)c1,"inconclusive: 31.6 µM [inhibitor, single point]",–
COc1ccc(S(=O)(=O)c2c(Nc3ccc(F)cc3)sc(C(=O)c3ccc4c(c3)OCO4)c2N)cc1,"inconclusive: 6.31 µM [inhibitor, single point]",–
CCN1CCN(C(c2ccccc2)c2sc3nc(-c4ccco4)nn3c2O)CC1 (stereo not given),–,inactive: -5.25%
CCC(Sc1nnnn1-c1ccccc1)C(=O)Nc1nc2ccccc2s1 (stereo not given),"inconclusive: 15.8 µM [inhibitor, partial curve, poor fit]",–
COc1cccc(CNC(=O)c2nn(-c3ccccc3Cl)nc2CO)c1,–,inactive: 3.4%
Cc1ccccc1C(=O)NCc1nc2cccnc2n1Cc1ccccc1,–,inactive: 4.48%
O=C(NCCc1ccc(Cl)cc1)c1ccc(Cn2c(=O)c3cccn3c3cccnc32)cc1,–,inactive: -13.1%
CCOC(=O)c1ccccc1NC(=O)c1ccc(NS(C)(=O)=O)cc1,"inconclusive: 39.8 µM [activator, single point]",–
COc1ccc2nc(/N=C(\N)NC(=O)C(C)(C)C)nc(C)c2c1,"inconclusive: 39.8 µM [activator, single point]",–
Cc1ccc(-n2ncc(C(=O)NCCCN3CCN(c4cccc(Cl)c4)CC3)c2-n2cccc2)cc1,–,inactive: 0.763%
COc1ccc(CNC(=O)CCc2c(C)nn(-c3ccc(N4CCCCC4)nn3)c2C)c(OC)c1,–,inactive: -6.76%
C=CCn1c(SCC(=O)c2ccc(CNC(C)=O)o2)nc2scc(C3CC3)c2c1=O,"inconclusive: 39.8 µM [activator, single point]",–

Structure (SMILES),Potency,"max response, negative = inhibition"
CCc1ccc2c(CN3CC=C(c4ccccc4)CC3)cc(=O)oc2c1,"inconclusive: 31.6 µM [inhibitor, single point]",–
COc1ccc(N2CCN(Cc3cc(=O)oc4cc5c(cc34)CCCC5)CC2)cc1,active: 12.6 µM,–
COc1ccc(-c2nc3cc(NC(=O)Cc4ccc(OC)c(OC)c4)ccc3o2)cc1,"inconclusive: 31.6 µM [activator, single point]",–
COc1ccc(Cl)cc1NC(=O)CN(C)C(=O)CNC(=O)C12CC3CC(CC(C3)C1)C2,"inconclusive: 31.6 µM [activator, single point]",–
CCOc1ccccc1Nc1nnc(SCc2nnc(-c3cc(OC)c(OC)c(OC)c3)o2)s1,"inconclusive: 39.8 µM [activator, single point]",–
CC(=O)c1nn(-c2ccccc2)cc1C(=O)c1ccc(Br)cc1,"inconclusive: 39.8 µM [inhibitor, single point]",–
CN(c1ccc(F)cc1)S(=O)(=O)c1ccc(Cl)c(C(=O)Nc2ccc3c(c2)CCC3)c1,"inconclusive: 39.8 µM [inhibitor, single point]",–
Cc1cc2oc(=O)c(CC(=O)O)c(C)c2c2occ(-c3ccc(F)cc3)c12,"inconclusive: 25.1 µM [inhibitor, single point]",–
Cc1ccc(N2CC(NC(=O)c3ccc(S(=O)(=O)N4CCOCC4)cc3)CC2=O)cc1C (stereo not given),"inconclusive: 39.8 µM [activator, single point]",–
Cc1cccc(N2CCN(C(=O)COc3cc(=O)n(C)c4ccccc34)CC2)c1C,"inconclusive: 39.8 µM [activator, single point]",–
COc1ccc(CC(=O)NC(C)c2nnc(SCC(=O)c3ccc(Br)cc3)n2C)cc1 (stereo not given),"inconclusive: 20 µM [activator, single point]",–
COc1ccc(OC)c(C2C(C#N)=C(N)Oc3cc(N)ccc32)c1 (stereo not given),"inconclusive: 31.6 µM [inhibitor, single point]",–
COc1ccccc1NC(=S)NC1CCC(CC2CCC(NC(=S)Nc3ccccc3OC)CC2)CC1 (stereo not given),active: 3.98 µM,–
Cc1ccccc1-n1cc(-c2ccccc2)nc1SCC(=O)Nc1ccc(F)cc1,"inconclusive: 39.8 µM [inhibitor, single point]",–
COc1ccc(-n2c(=O)c3c4c(sc3n(Cc3cc(C)ccc3C)c2=O)CN(C(C)=O)CC4)c(OC)c1,"inconclusive: 12.6 µM [activator, partial curve]",–
COc1cccc(C2c3c(oc4ccc(C)cc4c3=O)C(=O)N2CCCN2CCOCC2)c1OC (stereo not given),–,inactive: -4.82%
CN(C)S(=O)(=O)c1ccc(C(=O)OCC(=O)NC(=O)NCc2ccccc2)cc1,"inconclusive: 31.6 µM [inhibitor, single point]",–
CC(C)c1ccc(OCC(=O)Nc2c(Cl)ccc3nsnc23)cc1,–,inactive: -12.4%
COc1ccc(C(C(=O)NC2CCCC2)N(C(=O)c2snc(-c3ccc(F)cc3)c2N)c2ccc(OC)cc2)cc1 (stereo not given),active: 25.1 µM,–
Cc1cc(C(=O)OCC(=O)Nc2cc(C(F)(F)F)ccc2N2CCOCC2)c(C)o1,"inconclusive: 31.6 µM [activator, single point]",–
